# Experimental data as given in article PMC4336329 (PLoS ONE, 2015).
# The whole screen tested about 310,000 compounds, of which about 2,200 (0.71%) showed an effect of 50% or more. Effects have a minus sign here. The list shows a part of the results.
# Biological target: human ether-à-go-go-related gene (hERG) potassium channel (human, UniProt Q12809)
# Assay: primary screen, population patch clamp on CHO cells stably expressing hERG
# human ether-à-go-go-related gene (hERG) potassium channel, sequence (Q12809 whole entry, looked up): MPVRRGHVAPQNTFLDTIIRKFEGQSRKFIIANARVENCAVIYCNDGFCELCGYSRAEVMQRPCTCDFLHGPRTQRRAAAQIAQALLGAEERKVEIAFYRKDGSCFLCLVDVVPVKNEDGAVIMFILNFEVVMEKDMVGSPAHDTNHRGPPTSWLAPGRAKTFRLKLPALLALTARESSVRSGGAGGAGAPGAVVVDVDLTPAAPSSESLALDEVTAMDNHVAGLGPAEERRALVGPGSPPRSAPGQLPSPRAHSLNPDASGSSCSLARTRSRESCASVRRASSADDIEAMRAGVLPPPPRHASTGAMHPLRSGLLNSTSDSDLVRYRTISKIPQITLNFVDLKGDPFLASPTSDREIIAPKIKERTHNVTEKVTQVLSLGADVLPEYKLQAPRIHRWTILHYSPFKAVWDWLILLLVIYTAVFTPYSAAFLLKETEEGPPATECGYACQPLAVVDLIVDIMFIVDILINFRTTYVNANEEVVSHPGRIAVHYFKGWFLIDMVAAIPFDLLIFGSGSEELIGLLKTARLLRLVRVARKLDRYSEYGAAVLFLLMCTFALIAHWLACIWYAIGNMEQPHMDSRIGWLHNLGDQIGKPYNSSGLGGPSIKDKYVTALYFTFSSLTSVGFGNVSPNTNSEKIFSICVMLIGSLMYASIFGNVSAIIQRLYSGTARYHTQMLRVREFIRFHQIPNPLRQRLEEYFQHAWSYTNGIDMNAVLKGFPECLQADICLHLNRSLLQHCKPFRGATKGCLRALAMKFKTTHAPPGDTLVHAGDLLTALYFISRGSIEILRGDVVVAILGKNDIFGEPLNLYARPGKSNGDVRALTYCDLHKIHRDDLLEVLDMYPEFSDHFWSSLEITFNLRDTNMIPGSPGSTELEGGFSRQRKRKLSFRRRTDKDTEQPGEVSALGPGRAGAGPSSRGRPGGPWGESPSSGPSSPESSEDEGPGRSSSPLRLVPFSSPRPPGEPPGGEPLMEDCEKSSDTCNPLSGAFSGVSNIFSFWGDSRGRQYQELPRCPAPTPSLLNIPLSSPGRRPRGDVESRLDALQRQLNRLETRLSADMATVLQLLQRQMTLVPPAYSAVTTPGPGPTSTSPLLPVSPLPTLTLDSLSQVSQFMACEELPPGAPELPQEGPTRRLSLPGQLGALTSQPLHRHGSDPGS
row,Structure (SMILES),"hERG current change (%, negative = inhibition) at 1uM [%]"
1,CCC(C)Sc1ccc(-c2nc3ccc(C)cn3c2NC2CCCCC2)cc1.O=C(O)C(F)(F)F (centres unmarked),0.404
2,CCOc1ccc(NC(=O)C2CCCN(S(=O)(=O)c3ccc4c(c3)CCCN4C(C)=O)C2)cc1 (centres unmarked),3.82
3,Cc1ccc(-n2ncc3c2CC(C)(C)CC3NC(=O)CCc2ccc(=O)[nH]n2)cc1 (centres unmarked),15
4,Cc1nnc(NC(=O)CSc2nccn2Cc2ccc(F)cc2)s1,4.39
5,CCCn1c(SCC(=O)Nc2nccs2)nnc1-c1cccnc1,-5.67
6,Cc1ccccc1C(=O)NNC(=O)c1cccc(Br)c1,11.2
7,C=CCN1C(=O)c2ccc(C(=O)N(CCC)CC(=O)Nc3ccccc3C)cc2C1=O,15.8
8,Cc1ccc(OCc2nnc(SCc3nc4ccccc4[nH]3)n2Cc2ccco2)cc1,1.25
9,COc1ccc(OCCn2cncn2)cc1,14.3
10,O=C1OC(NC(=O)c2ccccc2)C(N2CCOCC2)=C1Cl (centres unmarked),9.35
11,CCOC(=O)c1[nH]c(C)c(CCC(=O)[O-])c1C.[Na+],9.86
12,C/C(=N\NC(=O)c1nnn(-c2nonc2N)c1COc1ccc(F)cc1)c1ccc(Cl)cc1,15.3
13,COc1cc(C(=O)Nc2cc(Cl)ccc2-n2cncn2)ccc1OC(F)F,19.2
14,CC(C)(C)c1ccc(C(=O)N2CCN(CCNC(=O)C(=O)NCc3ccc(Cl)cc3)CC2)cc1,-1.42
15,C=CCNCC(O)COc1ccc(C(C)=O)cc1OC.O=C(O)C(=O)O (centres unmarked),2.72
16,CCC(=O)Nc1cccc(-c2nnc(-c3cccc(NC(=O)CC)c3)o2)c1,9.46
17,CCOc1ccc(NC(=O)CCn2cccc2)cc1,16.7
18,COc1ccc(Cl)cc1N1C(=O)[C@@H]2C(c3cccc(OC)c3OC)=NO[C@@H]2C1=O,11.7
19,Nc1ccc(CNc2ncn[nH]2)cc1,7.59
20,CC/C(=N\NC(=O)c1ccccc1)c1c(O)n(C2CCCCC2)c(=O)[nH]c1=O,6.6
21,COC(=O)Cn1c(=NC(=O)C2COc3ccccc3O2)sc2cc(S(N)(=O)=O)ccc21 (centres unmarked),12
22,Cc1onc(-c2c(Cl)cccc2Cl)c1C(N)=O,11
23,Cc1nn(-c2ccc(F)cc2)c(C)c1CN1CCN(Cc2ccccc2)C(CCO)C1 (centres unmarked),-20.2

row,Structure (SMILES),"hERG current change (%, negative = inhibition) at 1uM [%]"
1,NCCNc1cc(N2CCCC2)ccc1[N+](=O)[O-],2.91
2,CN(c1ccccc1)S(=O)(=O)c1ccc(NC(=S)NC(=O)c2ccccc2)cc1,-3.05
3,O=C(Nc1ccccc1)c1sc(N2CCOCC2)nc1-c1ccccc1,14.2
4,CNC(=O)c1cc(C(=O)c2ccc(F)cc2Cl)c[nH]1,15.4
5,Cc1nc2ccccn2c1-c1ccnc(SCc2ccc(Cl)cc2)n1,16
6,O=C(Cc1ccc(Br)cc1)NC1CCSC1=O (centres unmarked),29
7,CCC(=O)N1CCCc2cc(S(=O)(=O)N3CCC(N4CCCCC4)CC3)ccc21,11.1
8,Cc1nn(-c2ccccc2)c(CC(C)(C)C(=O)O)c1C(=O)O,9.53
9,Brc1ccc2nc(-c3cccs3)c(NCC3CCCO3)n2c1 (centres unmarked),-0.745
10,C(=N\N1CCOCC1)/c1ccsc1.O=P(O)(O)O,15.6
11,C(=N\c1nccs1)/c1c[nH]c2ccccc12,14.7
12,CCN(CC)S(=O)(=O)c1ccc(-c2cc(C(=O)OC)sc2C(F)(F)F)cc1,11.4
13,CCN(Cc1ccccc1)C(=O)CSc1n[nH]c(N)n1,19
14,COc1ccc(/C=C/C2=CCN(Cc3ccc(OC)cc3)CC2)cc1.Cl,-34.9
15,CC(=O)Cc1nsc(Nc2ccc(Cl)cc2)n1,5.37
16,O=C(COC(=O)c1cccc(S(=O)(=O)N2CCc3ccccc32)c1)Nc1ncc(C(F)(F)F)cc1Cl,15.4
17,CCOC(=O)C1CCN(Cc2ccc(OC)cc2OC)CC1,-14.2
18,CCN(CC)C(=O)OCCc1cc2ccccc2c(=O)o1,14.3
19,CSCc1ccc(C(=O)NCCSc2ccc(Br)cc2)cc1,11.6
20,CCN(CC)CCCN1C(=O)CSC1c1ccc2c(c1)OCO2.Cl (centres unmarked),-15.9
21,Cc1ccc(N/N=C/c2c(O)cc(C)oc2=O)cc1,8.41
22,CCOc1ccc(N=Nc2c(=O)[nH]n3c(=O)c4c([nH]c23)CCCC4)cc1,10.2
23,COc1ccc(/C=C(/NC(=O)c2ccc([N+](=O)[O-])cc2)C(=O)NCCCN(C)C)cc1,-65.3

row,Structure (SMILES),"hERG current change (%, negative = inhibition) at 1uM [%]"
1,C[C@H](NC(=O)Nc1ccccc1F)C(=O)O,10.2
2,CCn1cnc2c1c(=O)n(CC(=O)OC(C)C(N)=O)c(=O)n2Cc1ccccc1 (centres unmarked),7.63
3,C/C(=N\NC(=O)CSCc1ccccc1Cl)c1cccc(NC(=O)c2ccccc2)c1,9.15
4,CC(C)c1nc2sc3c(=S)nc[nH]c3c2c2c1CCC2,11.6
5,Cc1cc(C(=O)OCC(=O)Nc2cc(C(F)(F)F)ccc2N2CCOCC2)c(C)o1,10.6
6,COC(=O)C1=C(c2ccc(Cl)c(C(F)(F)F)c2)C[C@@H]2CC[C@H]1N2C(=O)NCc1ccc2c(c1)OCO2,5.8
7,CC1=C(C(=O)OC2CCCCCC2)C(c2ccc(C)o2)C2=C(CCCC2=O)N1 (centres unmarked),13.4
8,Cc1ccc2nc(SCC(=O)NCc3ccccc3Cl)nc(=O)n2c1,12.8
9,Cc1nc2nc[nH]n2c(=O)c1NS(=O)(=O)c1ccc(C(C)(C)C)cc1,12.5
10,N#Cc1ccccc1NC(=O)CSc1nnc(-c2ccncc2)o1,21.1
11,O=C(NCCC1=CCCCC1)C(=O)NCCc1ccc(Cl)cc1,8.52
12,C=CCNS(=O)(=O)c1cccc(C(C)=O)c1,9.26
13,C=CCNC(=S)Nc1cc(S(=O)(=O)N2CCOCC2)ccc1-n1cncn1,-0.865
14,CCSC1=NC(C)(C)C=C(/C=C/c2ccc(Cl)cc2Cl)N1,8.53
15,O=C(Nc1ccccc1N1CCOCC1)c1ccc(Cl)nc1,4.19
16,O=C(NCSc1ccnc(SCNC(=O)c2ccc(F)cc2)n1)c1ccc(F)cc1,10.2
17,O=C(COc1ccccc1Br)N1CCN(c2ccccc2)CC1,-3.28
18,CC(=O)N/C(=C/c1ccc2c(c1)OCO2)C(=O)NCCCO,15.9
19,COc1ccc(C(=O)C2CCCN(C/C=C/c3ccccc3OC)C2)c(OC)c1 (centres unmarked),-78.6
20,COc1ccccc1C(=O)NCCn1cc(SCC(=O)NCC2CCCO2)c2ccccc21 (centres unmarked),5.23
21,Cc1cc(Cl)ccc1NC(=O)Cn1cncn1,7.54
22,O=C(COc1ccc2ccccc2c1)Nc1ccncc1,-3.41
23,NS(=O)(=O)c1ccc(-c2ccc(/C=C3\C(=O)Nc4ccccc43)o2)cc1,13.5

row,Structure (SMILES),"hERG current change (%, negative = inhibition) at 1uM [%]"
1,CCc1c(C(=O)NC2CCCc3ccccc32)[nH]c(C)c1C(C)=O (centres unmarked),10.6
2,CC(C)CCN1CCN(Cc2cccn2-c2ccc(Cl)cn2)CC1CCO (centres unmarked),-47.6
3,C/C(N)=C(/C#N)C(=O)CSc1nnnn1-c1ccc(C)cc1,-3.45
4,CC(C(=O)NC(c1ccccc1)c1ccccc1)N1CCOCC1 (centres unmarked),-2.2
5,CCOc1ccc(-c2cc3cc(OC)c(OC)cc3c(C)n2)cc1,9.43
6,O=c1[nH]c2ccccc2c(=O)n1-c1cccc(Cl)c1,7.15
7,COc1cccc(CC2(CO)CCN(CC3=CC[C@H]4C[C@@H]3C4(C)C)CC2)c1,1.62
8,Cl.O=C(CCN1CCCCC1)Nc1cccc(Cl)c1,-1.31
9,CC1CC(C)(C)NC(=O)O1 (centres unmarked),-4.12
10,O=C1C2C3c4ccccc4C(c4ccccc43)C2C(=O)N1c1nc(-c2ccccc2)cs1 (centres unmarked),12.8
11,O=C1CCC(C(=O)OC(C(=O)c2c[nH]c3ccccc23)c2ccccc2)=NN1 (centres unmarked),10.1
12,O=C(C(=O)N1CCOCC1)c1cn(CC(=O)N2CCc3ccccc3C2)c2ccccc12,-3.42
13,Cc1ccnc(N/C=C(/NC(=O)c2ccccc2)C(=O)NN)n1,6.61
14,Cc1cccc(NC(=S)Nc2ccc(Br)cc2)c1,5.8
15,CCOc1cc(S(=O)(=O)N2CCCC2)ccc1Cl,2.75
16,CCOc1ccc(S(=O)(=O)/N=C(/c2ccccc2)N(C)C)cc1,14
17,Cc1c(C(=O)N(C)C)c2cc(Cl)ccc2n1O,12.5
18,CNC(=O)c1cc2ncc(C(F)(F)F)cc2s1,17.8
19,Cc1cccc(-c2c(O)cc(=O)[nH]c2Cl)c1,12.7
20,CCCNC(=O)Nc1nccs1,14.3
21,CCN(CC)S(=O)(=O)c1ccc2oc(Nc3ccc(OC)cc3OC)nc2c1,8.04
22,CC(C)Cn1c(=O)[nH]c2ccccc21,3.82
23,Cc1cc(-c2n[nH]c(=S)n2/N=C/c2sccc2C)n[nH]1,5.14
